{"source": "PubChem BioAssay AID2546", "about": "(National Center for Advancing Translational Sciences (NCATS), 2010)", "note": "About 11,000 (3.5%) of roughly 310,000 compounds were called active. The inconclusive results got no clear call from the source; some entries with a clear call stand among them for comparison. Calls follow the shape of the dose curve; as a rule, active = well fitted inhibition curve with a large enough effect; inconclusive = small, poorly fitted or top-dose-only effect, or effect the other way; inactive = flat fitted curve, though single readings scatter. No potency is given beside an inconclusive call; the fits are too rough. % is scaled to controls: 0 for no effect and ±100 for the full control effect; potency is read from the fitted curve at half-maximal effect; tags tell the direction and shape of the fitted curve.", "data": [{"test": "VP16 counterscreen qHTS for inhibitors of ROR gamma transcriptional activity;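 also: Gal4-VP16 expression switched on by copper sulfate through the metallothionein promoter; nearly all actives have a fitted effect of over 50% in size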", "conditions": "Drosophila S2 Gal4-VP16 UAS-luciferase, luminescence, 20 h; activity, negative = inhibition: at 53.6 µM (top of the series)", "values": [{"compound": "CCOc1ccc(CCNC(=O)c2cnc(C)cn2)cc1OCC", "Potency": "inactive"}, {"compound": "O=C(C1CCC1)N1CCc2cc(S(=O)(=O)Nc3ccc4c(c3)OCO4)ccc21", "Potency": "inconclusive [inhibitor, partial curve, poor fit]"}, {"compound": "O=[N+]([O-])c1ccccc1-c1cc(-c2ccccc2O)n[nH]1", "Potency": "inconclusive [inhibitor, single point]"}, {"compound": "COc1ccc(C(=O)NNC(=S)NC(=O)c2ccc(OC)cc2)cc1", "Potency": "inconclusive [inhibitor, single point]"}, {"compound": "CC(C)c1nc2cc(C(=O)N(C)Cc3ccc(F)cc3)ccc2o1", "Potency": "inconclusive [activator, single point]"}, {"compound": "CCN(C(=S)NC(=O)C1CCCC1)C1CCCCC1", "Potency": "inconclusive [inhibitor, single point]"}, {"compound": "CCOC(=O)c1cn2nc(N3CCCC3)ccc2n1", "Potency": "inconclusive [inhibitor, single point]"}, {"compound": "O=C(Nc1ccc2c(c1)OCCO2)c1ccc(Br)cc1", "Potency": "inconclusive [activator, full curve, poor fit]"}, {"compound": "CN(C)S(=O)(=O)c1ccc(C(=O)NCC(C)(C)CN=C2NS(=O)(=O)c3ccccc32)cc1", "Potency": "inactive"}, {"compound": "CCOC(=O)c1c(NC(C)=O)sc(/C(C)=N/Nc2ccc(C(=O)O)cc2)c1C", "Potency": "inconclusive [inhibitor, single point]"}, {"compound": "Cc1ccc(C(=O)NNC(=O)Cc2cccs2)cc1", "Potency": "inconclusive [activator, single point]"}, {"compound": "CC(C)Cn1c(N)c(C(=O)COC(=O)c2cc(C3CC3)nc3ccccc23)c(=O)n(C)c1=O", "Potency": "inconclusive [inhibitor, single point]"}, {"compound": "O=C(Nc1nccs1)c1ccc(Cl)cc1[N+](=O)[O-]", "Potency": "inconclusive [inhibitor, single point]"}, {"compound": "O=C(CCCN1C(=O)/C(=C\\c2ccco2)SC1=S)Nc1ccc(O)cc1C(=O)O", "Potency": "active: 14.1 µM"}, {"compound": "CCn1c(/C=C2\\C(=O)Nc3ccccc32)nc2ccccc2c1=O", "Potency": "inactive"}, {"compound": "CC(C)CCNC(=S)Nc1ccccc1F", "Potency": "active: 11.2 µM"}, {"compound": "Cn1cccc1CC(=O)NNC(=S)Nc1ccc(Cl)cc1Cl", "Potency": "inconclusive [inhibitor, partial curve]"}, {"compound": "Cc1ccc(OCC(=O)c2cc(C)n(Cc3cccs3)c2C)c([N+](=O)[O-])n1", "activity, negative = inhibition": "inactive: 3.5% [at 10 µM]"}, {"compound": "Cc1cccc2c1cnn2C(=O)Nc1ccccc1Br", "Potency": "inactive"}, {"compound": "COC(=O)C1CCN(C(=O)COC(=O)c2oc3ccc(OC)cc3c2C)CC1", "Potency": "inactive"}]}]}
